# PubChem BioAssay AID1454 (National Center for Advancing Translational Sciences (NCATS), 2008)
# About 550 (0.42%) of roughly 130,000 compounds were called active. The shares of active, inactive and inconclusive entries below differ from those in the screen. Calls follow the shape of the dose curve; as a rule, active = well fitted inhibition curve with a large enough effect; inconclusive = small, poorly fitted or top-dose-only effect, or effect the other way; inactive = flat fitted curve, though single readings scatter. Potencies of inconclusive entries are left out as doubtful fits.
# Experiment: qHTS Assay for Inhibitors of the ERK Signaling Pathway using a Homogeneous Screening Assay; Stimulation with EGF; also: nearly all actives have a fitted effect of over 55% in size
# Details: HEK293-V1b, EGF-stimulated phospho-ERK AlphaScreen
# In short: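 EGF-stimulated (25 nM, 5 min) phospho-ERK in HEK293 cells stably expressing V1b, cells pretreated 30 min with compound at 37C. Homogeneous AlphaScreen read on lysates.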
# Potency is read from the fitted curve at half-maximal effect; tags tell the direction and shape of the fitted curve.
row,SMILES,Potency
1,OCc1ccccc1O[C@H]1OC(CO)C(O)C(O)C1O (stereo not given in full),inactive
2,Cc1nn(CCC#N)c(N)c1C1(O)C(=O)Nc2c(Cl)cc(Cl)cc21 (stereo not given),"inconclusive [activator, partial curve]"
3,CCC(C)(C)c1ccc(OCCCC[n+]2cccc(C)c2C)c(C(C)(C)CC)c1,active: 31.6 µM
4,Cc1cc(F)ccc1S(=O)(=O)Nc1ccccc1C(=O)NCc1cccnc1,inactive
5,CCOC(=O)C1(CCCc2ccccc2)CCN(Cc2cn(CC)nc2C)CC1,"inconclusive [inhibitor, single point]"
6,COc1ccccc1C/C(N)=N/OC(=O)COc1cc(C)cc(C)c1C,"inconclusive [activator, single point]"
7,O=C1/C(=C/c2ccncc2)N=C2CCCCCN12,inactive
8,Cn1c(SCC(=O)Nc2cccc(S(=O)(=O)NC3=NCCCCC3)c2)nnc1-c1ccncc1,"inconclusive [inhibitor, single point]"
9,CCNc1ccc(Br)cc(C(=O)/C=C/c2c(Cl)cccc2Cl)c1=O,"inconclusive [inhibitor, single point]"
10,COc1ccc(CN2CCC(N(CCc3ccccc3)Cc3ccccc3)CC2)c(OC)c1,inactive
11,CCOc1cc(/C=N\Nc2ncc(F)c(N3CCOCC3)n2)ccc1Oc1nc(Cl)ncc1F,"inconclusive [inhibitor, partial curve]"
12,N#Cc1c(Nc2ccc(F)cc2)sc(C(=O)c2ccccc2)c1N,"inconclusive [inhibitor, single point]"
13,CCC/C=C(\CCC)C(NP(=O)(c1ccccc1)c1ccccc1)c1ccc(C(F)(F)F)cc1 (stereo not given),inactive
14,O=C(O)CNC(=O)c1ccccc1Br,"inconclusive [activator, full curve, poor fit]"
15,CCCc1sc(N/N=C/c2ccccn2)nc1-c1ccc(F)cc1,inactive
16,COc1ccccc1NC(=O)CSc1nnc(C2CCCCC2)n1-c1ccccc1,"inconclusive [inhibitor, single point]"
17,CC1=CC(=Nc2c(C)n(C)n(-c3ccccc3)c2=O)C=CC1=O,"inconclusive [inhibitor, partial curve, poor fit]"
18,NS(=O)(=O)c1ccc(N2N=C(c3ccccc3)CC2c2ccccc2)cc1 (stereo not given),inactive
19,C=CCc1c(C)nc(-c2ccccc2)nc1Nc1ccccc1O,"inconclusive [inhibitor, single point]"
20,N#CC(C#N)=C1C=CC=CN1/C(=C\c1ccco1)C(=O)c1ccc(Br)cc1,active: 7.94 µM
21,O=C(Nc1ncc([N+](=O)[O-])s1)c1cccc([N+](=O)[O-])c1,inactive
22,Cc1ccc(NC(=O)NCC2CCN(Cc3cccc(Cl)c3)CC2)cc1Cl,"inconclusive [inhibitor, partial curve]"
23,Fc1ccc(-c2csc(-c3ccccn3)n2)cc1F,"inconclusive [activator, single point]"

row,SMILES,Potency
1,N#Cc1cnc2cc(-c3ccccc3)nn2c1N,inactive
2,O=S(=O)(NCCC1CC1(Cl)Cl)c1ccccc1 (stereo not given),"inconclusive [activator, partial curve]"
3,N#Cc1c(Cl)nsc1NN,"inconclusive [inhibitor, partial curve]"
4,CCOC(=O)CC(C)(C)/C(C)=N/Nc1ccc([N+](=O)[O-])cc1[N+](=O)[O-],"inconclusive [inhibitor, single point]"
5,CCCCC(=O)N(c1ccc(C(=O)O)cc1)c1nc(-c2ccc(Cl)cc2)c(CC)s1,"inconclusive [inhibitor, partial curve, poor fit]"
6,Fc1ccccc1-c1csc(=Nc2cccnc2)n1CCCn1ccnc1,inactive
7,CNc1ccccc1C(C)(C)c1cc(-c2cccc([N+](=O)[O-])c2)no1,"inconclusive [inhibitor, single point]"
8,Cc1cc(C(=O)CN2C(=O)NC3(CCCc4sccc43)C2=O)c(C)n1-c1ccccc1 (stereo not given),inactive
9,O=C(Nc1ccc(Cl)c(Cl)c1)c1cccc(S(=O)(=O)NCc2cccnc2)c1,"inconclusive [inhibitor, single point]"
10,Cc1ccc(OCCN2CCN(CC(O)Cn3c4ccccc4c4ccccc43)CC2)cc1 (stereo not given),"inconclusive [inhibitor, single point]"
11,CN(C)c1cccc(C(=O)OC(C(=O)Nc2ccc([N+](=O)[O-])cc2Br)c2ccccc2)c1 (stereo not given),"inconclusive [inhibitor, partial curve]"
12,Cc1ccc(-c2c3c(nc4sc(C(N)=O)c(N)c24)CCCC3)o1,inactive
13,COc1ccc(-c2cccc(C(=O)Nc3ccccc3C)c2)cc1,inactive
14,Cc1ccc(C(=O)NC(=S)Nc2cccc3nsnc23)cc1,"inconclusive [activator, single point]"
15,Cc1cc(C(=O)Cn2nc(C(=O)O)c3ccccc3c2=O)c(C)n1-c1ccccc1,"inconclusive [inhibitor, single point]"
16,N#CCC(=O)NNc1c([N+](=O)[O-])cc(C(F)(F)F)cc1[N+](=O)[O-],"inconclusive [inhibitor, single point]"
17,Nc1nc(-c2ccc(Cl)cc2)c(N=Nc2ccc(S(=O)(=O)N3CCOCC3)cc2)s1,"inconclusive [inhibitor, partial curve]"
18,O=C(CSCC(=O)Nc1nc(-c2ccc3c(c2)OCO3)cs1)Nc1nccs1,"inconclusive [inhibitor, single point]"
19,CN1C[C@@H]2C(c3ccccc3)C3(c4ccc(C#N)cc4)CC2(C3)[C@H]1c1ccccc1 (stereo not given in full),"inconclusive [inhibitor, partial curve, poor fit]"
20,COC/C=C/C1=CC2=CC(=O)C(C)(OC(=O)c3ccc(Cl)nc3)C(=O)C2=CO1 (stereo not given),inactive
21,COc1ccccc1/C=C/C=C1\Oc2c(ccc(O)c2CN2CCN(CCO)CC2)C1=O,inactive
22,O=C(O)c1cccc(NC2=C(N3CCOCC3)C(=O)c3ccccc3C2=O)c1,inactive
